# Experimental data as given in the supplement of paper PMC10185492.
# This is one part of the list. Values come from read counts of a selection and are noisy.
# System: SARS-CoV-2 3CLpro (nsp5)
# Assay: substrate phage enrichment score (protease-eluted vs HEPES control, +1 offset) (ratio); higher = better cleaved substrate
# Settings: selection round: 4; protease elution time: 15 min
# Method: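 Random heptapeptide substrate phage display (M13 pIII fusion, heptapeptide between an N-terminal biotinylated AviTag GLNDIFEAQKIEWHE and pIII; phages immobilised on streptavidin) eluted by cleavage with 50 nM protease in 20 mM HEPES at 37 °C. Selected phages were NGS sequenced, and the enrichment score is (reads in protease sample + 1)/(reads in HEPES blank-selection control + 1).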
row,Substance,substrate phage enrichment score
1,GQPCIYS,4.5
2,ECRRDHG,> 32
3,GSNSHLA,> 27
4,SAAAPHH,1.13
5,AAVGMQA,1
6,QENKLPG,> 260
7,HPGVEDG,> 38
8,ERHCRAY,> 131
9,VEAAHHH,0.6
10,TQLQGFQ,> 57
11,KPNYPRH,> 28
12,SEHVKMQ,> 21
13,SWCTKYG,> 29
14,CKTKCAL,1.8
15,TQRANGP,1
16,GAAAPHH,1.38
17,RASVRLT,> 80
18,PANSTLQ,11
19,KCHTEPK,1
20,GDCRGVR,> 25
21,SVRDDPR,> 65
22,CRWPVKS,4.75
23,NSQDARA,2.67

row,Substance,substrate phage enrichment score
1,SGLSGGT,1.67
2,AWKGASP,2.84
3,ASQTGKM,> 28
4,RPEALWR,0.783
5,SHKLISE,0.778
6,PHGMPHR,45.5
7,KHSHAGK,> 22
8,PHVIEKG,6.5
9,QHSWHTR,4.24
10,NSKTESD,0.316
11,NKTSESY,> 28
12,SQPARDC,2.48
13,RPPYTAR,4.5
14,STPALIQ,2.11
15,TWLERNG,8.33
16,SKAEERT,> 27
17,AQREQQM,24
18,ATNMYAP,> 29
19,QCKYSRQ,2.26
20,CSLSMPG,0.15
21,ASMARSS,13
22,GAAAQHH,1.65
23,ARPQSRT,9

row,Substance,substrate phage enrichment score
1,VAVGNRQ,> 24
2,AGCSVCA,4.07
3,TTVQYGQ,> 25
4,SNPRELT,> 44
5,HSQMTVP,> 37
6,HADNVTD,1
7,APSIGSR,6.71
8,VTPSDLQ,9.33
9,VGSETSQ,3.29
10,CDHIKVT,> 22
11,SAAAQQQ,1.99
12,WTHAGTQ,> 29
13,QPRERGE,> 36
14,EHQRSSD,> 43
15,GHREEAA,4
16,HCFRAKR,0.0571
17,VRPHLII,1.29
18,VVHDVKQ,0.158
19,CDRGGHG,0.5
20,YRDPGRR,2.57
21,VKPRAQQ,0.294
22,TSGPMNQ,> 37
23,FQQCEPL,1.32

row,Substance,substrate phage enrichment score
1,PSNTTAH,0.733
2,TCSAAHH,2.6
3,WEAAHHH,0.571
4,KPVPVSE,> 29
5,LKARSQH,1.31
6,HLNPEPI,6.9
7,CCVRPQN,> 38
8,SHDSNLM,17.5
9,INDLADG,19.3
10,TRSPRPH,> 64
11,YCSCTSD,> 24
12,ANHLNPG,3.67
13,SAGAHHH,2.06
14,TSGFENR,8.36
15,ETSSVPD,2.38
16,LQPKSGQ,> 25
17,RASILQA,> 51
18,LNSEDLL,> 40
19,TAVPILQ,> 42
20,GRNERPP,> 31
21,APASTLQ,> 36
22,TTLQSDR,> 60
23,RASQRHG,0.0769

row,Substance,substrate phage enrichment score
1,PLHTRLQ,> 36
2,ELHFQGG,1.88
3,SPMHLMR,1.73
4,KFRGLGD,> 57
5,THQNVRQ,1.29
6,EPQVNGQ,7
7,ARHADSW,10.5
8,PTLSGER,3.12
9,YKAAHHH,2.22
10,LGGIRLH,3.23
11,QDGTATR,2.25
12,PWDSKVY,1.18
13,VRPHIIT,0.692
14,RVEPFPR,1.58
15,HRDRRDT,> 103
16,NALPWQQ,0.389
17,QPGNMEL,0.6
18,LQQKTHT,> 31
19,PAIHESR,16.5
20,PGQARPD,0.304
21,FGAAHHH,0.611
22,VHLPVPT,7.67
23,SRKPGAR,0.17

row,Substance,substrate phage enrichment score
1,AVSAPGN,3.78
2,PDGCDHH,11.8
3,QAKCNQQ,> 28
4,RSAPFSQ,3.6
5,GPYRHGS,5.5
6,SRGPCLM,> 43
7,VKTSSLQ,> 23
8,KGCTPWR,0.6
9,LEQENSE,0.2
10,NPTAHHH,0.6
11,DCRLQSW,20.5
12,KADCVNW,1.61
13,PTTSVTF,0.107
14,SECDPRD,1.6
15,RSCVLQG,49.8
16,PTRTKGQ,> 81
17,VQHHMMG,> 59
18,CGGGWER,> 24
19,AYHQSRP,1.33
20,HATAHHH,4.3
21,HHDRQPH,> 33
22,RHCLSCL,9.83
23,QGFDETT,3

row,Substance,substrate phage enrichment score
1,WKAAHHH,0.0275
2,KSNAHWQ,> 34
3,KPYTTRP,> 32
4,PLPNFQG,> 80
5,SILQSAK,> 72
6,PTVTHLQ,> 113
7,PRSGQPQ,> 24
8,LNQEEAA,0.3
9,SSASQLY,6.67
10,RNPTQLN,> 45
11,DSSLILQ,30.5
12,CSTRPNL,2.67
13,VPDTFQP,0.315
14,QRYHLEI,0.3
15,CENWSAQ,> 40
16,FVDQWHT,> 35
17,CHLEPRT,2.7
18,LTQPCQR,0.464
19,YPQVELR,9
20,SGSCWPA,> 79
21,AWRPGES,9.33
22,LLHEDFI,10.5
23,THLQAKC,41.4

row,Substance,substrate phage enrichment score
1,SCQRSPR,0.529
2,SDAASSN,> 40
3,AIGGYVC,2.69
4,CTHSRKV,1.46
5,ATEAFQT,1.63
6,HPMSQDQ,3.4
7,PERCNAR,0.194
8,CPTTHHA,4.67
9,SAAAHHQ,1.47
10,VNPLCKA,> 23
11,SLIEGTR,0.786
12,PSRPRYN,2.82
13,LSKEQWM,5.5
14,PSPVYIR,1.33
15,QPTTRHD,2.57
16,SSRAMQQ,1.25
17,CGAAAHH,0.294
18,LYIQGGS,2.11
19,GASAHHH,1.25
20,SARHEFS,> 33
21,LYQVSSG,> 35
22,IQGGSCV,1.15
